According to the RNAGym collection of RNA variant scans (doi:10.1073/pnas.2313332121):
Variants at the background level are over-represented here.

B1: TPR 5TU (parent)
chain: GGAUCUUCUCGAUCUAACAAAAAAGACAAAUCUGCCACAAAGCUUGAGAGCAUCUUCGGAUGCAGAGGCGGCAGCCUUCGGUGGCGCGAUAGCGCCAACGUUCUCAACUAUGACACGCAAAACGCGUGCUCCGUUGAAUGGAGUUUAUCAUG

Variants of: B1
Test: polymerase ribozyme fitness, log enrichment relative to wild type (log ratio); higher = more active; in vitro selection for triplet polymerase activity
Summary of the method: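 After PCR construction and transcription, each subunit's mutant library from a heterodimeric triplet polymerase ribozyme was annealed with a biotinylated primer, the partner subunit and triplets. Incubation was frozen, at −7 °C, and extended constructs were gel-excised, bound to streptavidin beads and amplified by RT-PCR, in one selection round done in triplicate. Fitness is the logarithm of a genotype's enrichment divided by that of the wild type, from inverse-variance-weighted replicate averages of Illumina-sequenced inputs and outputs. The base of the logarithm is 2, and genotypes needed ≥10 input reads and ≥1 read per output.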

**Q.** For C57G G86U, which “polymerase ribozyme fitness (log ratio)” value is on record?
**A.** -1.26

**Q.** Which “polymerase ribozyme fitness (log ratio)” value does the source give for C57U C76G A142C here?
**A.** ≤ -4.2

**Q.** With U56G G70U C76G C85U C93U G126U U130A G143C as the variant, how does the “polymerase ribozyme fitness (log ratio)” value read?
**A.** ≤ -4.2

**Q.** Which “polymerase ribozyme fitness (log ratio)” value does the source give for C57U C69U C93U C103G U151A here?
**A.** ≤ -4.2

**Q.** With U56G A60G G84A as the variant, how does the “polymerase ribozyme fitness (log ratio)” value read?
**A.** -0.664

**Q.** With U56C U82G as the variant, how does the “polymerase ribozyme fitness (log ratio)” value read?
**A.** -0.541

**Q.** Which “polymerase ribozyme fitness (log ratio)” value does the source give for U56A G117A here?
**A.** -0.176

**Q.** With C57G A73U G86C U111G G140C as the variant, how does the “polymerase ribozyme fitness (log ratio)” value read?
**A.** ≤ -4.2

**Q.** With C57A C87G U148A as the variant, how does the “polymerase ribozyme fitness (log ratio)” value read?
**A.** ≤ -4.2

**Q.** Which “polymerase ribozyme fitness (log ratio)” value does the source give for C57A G71U G92C C103U A120G G141C here?
**A.** ≤ -4.2

**Q.** With C57U G65C C85A as the variant, how does the “polymerase ribozyme fitness (log ratio)” value read?
**A.** ≤ -4.2

**Q.** For C57A U61A C95U A97U A115U U144C, which “polymerase ribozyme fitness (log ratio)” value is on record?
**A.** ≤ -4.2

**Q.** For C57A A122C, which “polymerase ribozyme fitness (log ratio)” value is on record?
**A.** -0.0129

**Q.** Which “polymerase ribozyme fitness (log ratio)” value does the source give for U56A G59U G74C C95U A122C here?
**A.** ≤ -4.2

**Q.** For C57U C85G C99U G128A, which “polymerase ribozyme fitness (log ratio)” value is on record?
**A.** ≤ -4.2

**Q.** With U56G G59U G80C C93A G126C as the variant, how does the “polymerase ribozyme fitness (log ratio)” value read?
**A.** ≤ -4.2

**Q.** With C57U G58U C69U G71A U78G U144A U151A as the variant, how does the “polymerase ribozyme fitness (log ratio)” value read?
**A.** ≤ -4.2

**Q.** For U56A U61A C76G G84A C103G, which “polymerase ribozyme fitness (log ratio)” value is on record?
**A.** ≤ -4.2

**Q.** With U56C C93U as the variant, how does the “polymerase ribozyme fitness (log ratio)” value read?
**A.** -1.53

**Q.** With U56A G65A G94C A150U as the variant, how does the “polymerase ribozyme fitness (log ratio)” value read?
**A.** -1.57

**Q.** With C57G G59A C118U C125A G136C as the variant, how does the “polymerase ribozyme fitness (log ratio)” value read?
**A.** -3.19

**Q.** For U56A U82A A137C G141C, which “polymerase ribozyme fitness (log ratio)” value is on record?
**A.** ≤ -4.2

**Q.** With C57U G94U C118U G143U as the variant, how does the “polymerase ribozyme fitness (log ratio)” value read?
**A.** ≤ -4.2

**Q.** For C57A C75A U104C C105A A107C C114U G140U, which “polymerase ribozyme fitness (log ratio)” value is on record?
**A.** ≤ -4.2

**Q.** Which “polymerase ribozyme fitness (log ratio)” value does the source give for U56A U102G G141U U145C A150U here?
**A.** ≤ -4.2

**Q.** For C57U G58C G74C U77A, which “polymerase ribozyme fitness (log ratio)” value is on record?
**A.** ≤ -4.2

**Q.** With C57G G88U G94A as the variant, how does the “polymerase ribozyme fitness (log ratio)” value read?
**A.** ≤ -4.2

**Q.** With C57G C69U C76A G92A U139A as the variant, how does the “polymerase ribozyme fitness (log ratio)” value read?
**A.** ≤ -4.2

**Q.** With C57U C75A G83U C96G A97U A98U A119G G124U U134A as the variant, how does the “polymerase ribozyme fitness (log ratio)” value read?
**A.** ≤ -4.2

**Q.** For U56G C76A U130G G141A, which “polymerase ribozyme fitness (log ratio)” value is on record?
**A.** ≤ -4.2

**Q.** For U56A G58U A97C C99A, which “polymerase ribozyme fitness (log ratio)” value is on record?
**A.** -2.52

**Q.** Which “polymerase ribozyme fitness (log ratio)” value does the source give for U56G A64U G81A G88A C114A A115U G141U here?
**A.** ≤ -4.2

**Q.** Which “polymerase ribozyme fitness (log ratio)” value does the source give for U56C G143U here?
**A.** -2.95

**Q.** For U56A U102G, which “polymerase ribozyme fitness (log ratio)” value is on record?
**A.** -2.4

**Q.** With U56A U61A C114G as the variant, how does the “polymerase ribozyme fitness (log ratio)” value read?
**A.** -3.96

**Q.** Which “polymerase ribozyme fitness (log ratio)” value does the source give for C57A A89C C103A A107U G128U here?
**A.** ≤ -4.2

**Q.** For C57U G81A A106U A107U A150G, which “polymerase ribozyme fitness (log ratio)” value is on record?
**A.** ≤ -4.2

**Q.** With C57G G74C A119U as the variant, how does the “polymerase ribozyme fitness (log ratio)” value read?
**A.** ≤ -4.2

**Q.** For U56G G92U A115G C116G G126A A142C A150G, which “polymerase ribozyme fitness (log ratio)” value is on record?
**A.** ≤ -4.2

**Q.** Which “polymerase ribozyme fitness (log ratio)” value does the source give for C57U C75G C93U C99U here?
**A.** ≤ -4.2

**Q.** With C57U C87G A120U U135G A142C G152U as the variant, how does the “polymerase ribozyme fitness (log ratio)” value read?
**A.** ≤ -4.2

**Q.** For C57G G71U C72G G84U G133U A137U, which “polymerase ribozyme fitness (log ratio)” value is on record?
**A.** ≤ -4.2

**Q.** For U56A G80A A138U G143C, which “polymerase ribozyme fitness (log ratio)” value is on record?
**A.** ≤ -4.2

**Q.** For C57G G94U C149G, which “polymerase ribozyme fitness (log ratio)” value is on record?
**A.** ≤ -4.2

**Q.** Which “polymerase ribozyme fitness (log ratio)” value does the source give for U56A G100U here?
**A.** -4.09

**Q.** For C57A G58U C76A C85U C96U A147G, which “polymerase ribozyme fitness (log ratio)” value is on record?
**A.** -3.03

**Q.** Which “polymerase ribozyme fitness (log ratio)” value does the source give for C57A A60C C72U G140U A150G here?
**A.** ≤ -4.2

**Q.** For U56A G67U G84A A107U G133U G141C, which “polymerase ribozyme fitness (log ratio)” value is on record?
**A.** ≤ -4.2

**Q.** Which “polymerase ribozyme fitness (log ratio)” value does the source give for U56G C93U here?
**A.** -3.02

**Q.** For U56A G68U C93A A122C C125U, which “polymerase ribozyme fitness (log ratio)” value is on record?
**A.** ≤ -4.2

**Q.** Which “polymerase ribozyme fitness (log ratio)” value does the source give for U56A G92A U148G here?
**A.** ≤ -4.2

**Q.** With U56A U90G as the variant, how does the “polymerase ribozyme fitness (log ratio)” value read?
**A.** ≤ -4.2

**Q.** Which “polymerase ribozyme fitness (log ratio)” value does the source give for U56A U102A A107G here?
**A.** ≤ -4.2

**Q.** Which “polymerase ribozyme fitness (log ratio)” value does the source give for C57G A73G C87G A98U C125G G141A here?
**A.** ≤ -4.2

**Q.** For U56C A64U C93A C95U G133C, which “polymerase ribozyme fitness (log ratio)” value is on record?
**A.** ≤ -4.2

**Q.** Which “polymerase ribozyme fitness (log ratio)” value does the source give for C57G C125A here?
**A.** -0.508

**Q.** With C57U G88U as the variant, how does the “polymerase ribozyme fitness (log ratio)” value read?
**A.** ≤ -4.2

**Q.** For U56G A60U A64G A66C C87A, which “polymerase ribozyme fitness (log ratio)” value is on record?
**A.** ≤ -4.2

**Q.** With U56A G83C C96U U127A as the variant, how does the “polymerase ribozyme fitness (log ratio)” value read?
**A.** ≤ -4.2

**Q.** Which “polymerase ribozyme fitness (log ratio)” value does the source give for U56A U77C here?
**A.** -2.93

**Q.** For C57U C79A C85U C93G C96U, which “polymerase ribozyme fitness (log ratio)” value is on record?
**A.** ≤ -4.2

**Q.** For C57G A115U U145A, which “polymerase ribozyme fitness (log ratio)” value is on record?
**A.** -1.54

**Q.** Which “polymerase ribozyme fitness (log ratio)” value does the source give for U56C C87G C118U A119U here?
**A.** ≤ -4.2

**Q.** With C57U C72G G80U C87A as the variant, how does the “polymerase ribozyme fitness (log ratio)” value read?
**A.** ≤ -4.2

**Q.** Which “polymerase ribozyme fitness (log ratio)” value does the source give for C57U C69G G84A C85G here?
**A.** ≤ -4.2

**Q.** For C57A C85U, which “polymerase ribozyme fitness (log ratio)” value is on record?
**A.** -0.0999

**Q.** Which “polymerase ribozyme fitness (log ratio)” value does the source give for U56G A142U here?
**A.** -0.88

**Q.** With U56A U78G G83A C129U as the variant, how does the “polymerase ribozyme fitness (log ratio)” value read?
**A.** ≤ -4.2

**Q.** For C57U C75U G83C C105G, which “polymerase ribozyme fitness (log ratio)” value is on record?
**A.** ≤ -4.2

**Q.** Which “polymerase ribozyme fitness (log ratio)” value does the source give for C57G C96G U104G here?
**A.** -4.16

**Q.** For U56A U82C C87G A150U, which “polymerase ribozyme fitness (log ratio)” value is on record?
**A.** -3.31

**Q.** Which “polymerase ribozyme fitness (log ratio)” value does the source give for C57A G83A A89G C95U C105A U134G A150U here?
**A.** ≤ -4.2

**Q.** For U56G C85U A106G U109C G143A, which “polymerase ribozyme fitness (log ratio)” value is on record?
**A.** ≤ -4.2

**Q.** With U56G G100U U134A U146A U148A as the variant, how does the “polymerase ribozyme fitness (log ratio)” value read?
**A.** ≤ -4.2

**Q.** Which “polymerase ribozyme fitness (log ratio)” value does the source give for C57U G59A C93A G117U here?
**A.** ≤ -4.2

**Q.** Which “polymerase ribozyme fitness (log ratio)” value does the source give for U56A G62A A97G C103A here?
**A.** -3.45

**Q.** For C57U C75G, which “polymerase ribozyme fitness (log ratio)” value is on record?
**A.** -3.63

**Q.** With C57G A107U G133C G136U U144A as the variant, how does the “polymerase ribozyme fitness (log ratio)” value read?
**A.** ≤ -4.2

**Q.** Which “polymerase ribozyme fitness (log ratio)” value does the source give for C57G G59A U78G G84A here?
**A.** ≤ -4.2

**Q.** For U56G U78C C99G G124C C125U, which “polymerase ribozyme fitness (log ratio)” value is on record?
**A.** -2.94

**Q.** Which “polymerase ribozyme fitness (log ratio)” value does the source give for C57G G80C A142C here?
**A.** ≤ -4.2

**Q.** For C57G C75U G86A A91C, which “polymerase ribozyme fitness (log ratio)” value is on record?
**A.** ≤ -4.2

**Q.** For C57A G86A A110U C149A, which “polymerase ribozyme fitness (log ratio)” value is on record?
**A.** ≤ -4.2

**Q.** With C57A C76G A115G A138G as the variant, how does the “polymerase ribozyme fitness (log ratio)” value read?
**A.** ≤ -4.2
